# Reference: the supplement of paper PMC7826260
# The other results are listed elsewhere or left out. One pool of 16,384 single-stranded DNAs met each Rep nickase domain in vitro (1 h at 37 °C, 3 µM enzyme); the outer parts of the 90-letter strands are left off. Numbers give uncut DNA relative to the enzyme-free pool, as log2; the lower, the more was cut; hits are not called. Counts are relative to all reads; where an enzyme cuts many sequences, the uncut ones exceed 0.
# Tested on: T1, Rep nickase domain of Muscovy duck circovirus
# T1 sequence (protein, residues 1-111, tag omitted): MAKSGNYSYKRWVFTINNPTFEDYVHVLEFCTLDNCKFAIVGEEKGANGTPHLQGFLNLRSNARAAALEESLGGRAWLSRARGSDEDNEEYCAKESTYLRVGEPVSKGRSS
# Assay: uncleaved DNA left, log2 of reads against the no-enzyme library (log2 ratio); higher = less cleavage (more negative = more Rep cleavage of the k-mer); sequences stand for … in CTCGTCCG…ACCGGAGA
# Procedure: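 A pool of 90-nt single-stranded DNAs with seven random bases just before the constant AC of the nick site (name = the seven bases) was cut by 3 µM recombinant His6-SUMO-tagged Rep nickase domain (300 nM DNA, 50 mM HEPES pH 8.0, 50 mM NaCl, 1 mM MnCl2, 1 h, 37 °C, three replicates). Uncut DNA was amplified and sequenced.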
row,Sequence,uncleaved DNA left (log2)
1,GATCGCT,-0.0276
2,CAATATC,0.0778
3,TTATGGT,-0.624
4,CTATGCT,-1.77
5,TTTTCAG,-0.0627
6,TAGCGTT,0.0105
7,AAGGACA,-0.0328
8,TCCCACC,-0.119
9,ATTCCGC,-0.00606
10,AGAAGGG,0.072
11,CGCTCAC,-0.169
12,TGTTGCA,-0.156
13,CCAATGA,-0.142
14,GTGAGGT,-0.102
15,GACTTTC,-0.272
16,AGACGCC,0.106
17,AGTGTTA,-0.155
18,ACGTTTA,-0.0636
19,CCAGATC,0.105
20,TACATCA,0.00582

row,Sequence,uncleaved DNA left (log2)
1,TTGCTCA,0.0245
2,ATGGATC,-0.0884
3,GTGCCAG,-0.1
4,TGCTGTG,-0.0198
5,CCGGGCC,0.0318
6,CCGGACT,-0.027
7,AGTGGCG,0.188
8,GTTATCC,0.0235
9,CGACTGC,0.0296
10,CTGTTCC,-0.126
11,CAGCTAA,-0.00345
12,GACGGGC,0.0741
13,TCCGAGC,-0.152
14,ATATCCA,-0.173
15,CCTATAT,-0.0726
16,CACAACC,-0.0932
17,ACAAAGC,0.113
18,ACAAGCG,-0.044
19,TGGTAAG,0.072
20,TGTTGTG,0.00669
